No constants are given. Whether binding was seen depends on the method and setting. For some of these results: Binding seen in cells or lysates may run through a third protein. Some results given as binding are weak or reduced against the parent protein; the word gives no strength. For some of these results: Tags and fused reporters may be left off the sequences shown.

By UniProt entry, the sequences of proteins in these tests, tags left out.
UniProt Q5J8M3: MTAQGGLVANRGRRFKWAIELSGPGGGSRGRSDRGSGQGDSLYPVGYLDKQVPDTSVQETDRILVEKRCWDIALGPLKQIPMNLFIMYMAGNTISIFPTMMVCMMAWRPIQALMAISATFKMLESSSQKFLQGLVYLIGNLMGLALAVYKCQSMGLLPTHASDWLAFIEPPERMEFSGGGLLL
UniProt P21796: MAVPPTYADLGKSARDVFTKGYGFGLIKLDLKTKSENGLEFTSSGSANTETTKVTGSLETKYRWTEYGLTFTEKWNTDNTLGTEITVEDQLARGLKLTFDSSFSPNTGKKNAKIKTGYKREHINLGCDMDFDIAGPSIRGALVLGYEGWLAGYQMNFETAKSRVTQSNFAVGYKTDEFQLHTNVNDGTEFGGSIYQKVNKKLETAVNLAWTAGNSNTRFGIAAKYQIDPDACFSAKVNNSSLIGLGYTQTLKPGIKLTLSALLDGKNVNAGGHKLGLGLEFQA

Among the data in PMC11006472 are binding values, retold here.

Assay [1] deals with T1, EMC7^1–156-smbit (human) (UniProt Q9NPA0).
T1 sequence: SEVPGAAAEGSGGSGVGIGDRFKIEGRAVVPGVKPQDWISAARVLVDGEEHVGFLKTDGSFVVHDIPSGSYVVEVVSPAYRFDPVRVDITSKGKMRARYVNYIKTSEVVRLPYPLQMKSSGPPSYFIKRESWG
The assay can be described thus: split reporter; NanoBiT in HEK293T cells, 50 ng Lgbit plasmid and 50 ng smbit plasmid per well, C-terminal fusions, luminescence with furimazine 24 h after transfection.

Assay [2] concerns the target T2, EMC7-smbit (human) (UniProt Q9NPA0).
T2 sequence: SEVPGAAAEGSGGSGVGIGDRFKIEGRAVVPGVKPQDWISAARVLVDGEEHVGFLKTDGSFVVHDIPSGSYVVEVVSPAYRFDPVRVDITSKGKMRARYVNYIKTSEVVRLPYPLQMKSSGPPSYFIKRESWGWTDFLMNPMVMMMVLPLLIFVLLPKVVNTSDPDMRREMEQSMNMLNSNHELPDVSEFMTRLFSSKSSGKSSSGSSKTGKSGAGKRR
The assay is described as above.

Assay [3] has as its target T3, EMC7-VC (human) (UniProt Q9NPA0).
T3 sequence: T2 sequence
Nature of the assay: split reporter; BiFC with Venus VN (1–154) and VC (155–238) fused at the C termini, co-transfected 293T cells, imaged after 24 h (STED), mitochondria stained with MitoTracker.

The target of assay [4] is T4, EMC7, subunit of human EMC (endogenous) (human (endogenous in Expi293F)) (UniProt Q9NPA0).
T4 sequence: T2 sequence
Nature of the assay: cryo-EM structure; VDAC1-bound class of the purified human EMC sample in digitonin (complex co-purified from cells), single-particle cryo-EM, 3.32 Å.

Assay [5] addresses T5, EMC3, subunit of human EMC (human (endogenous in Expi293F)) (UniProt Q9P0I2).
T5 sequence: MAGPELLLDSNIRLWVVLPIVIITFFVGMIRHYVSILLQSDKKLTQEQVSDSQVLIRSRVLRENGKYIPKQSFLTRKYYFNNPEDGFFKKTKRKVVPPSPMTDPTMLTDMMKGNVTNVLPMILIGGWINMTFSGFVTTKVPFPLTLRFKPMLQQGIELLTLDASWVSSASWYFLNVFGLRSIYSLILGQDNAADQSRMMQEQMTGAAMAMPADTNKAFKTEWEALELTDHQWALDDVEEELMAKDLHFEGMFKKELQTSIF
The assay is described as above.

In assay [6] the target is EMC4, subunit of human EMC (human (endogenous in Expi293F)) (UniProt Q5J8M3). The description is as above.
In assay [7] the target is T6, wild type EMC7 fused with a 3xFlag tag (human) (UniProt Q9NPA0).
T6 sequence: T2 sequence
The assay can be described thus: co-IP; one-step purification on Flag agarose beads from 1% DDM lysate of EMC7 knockout Expi293F cells expressing 3xFlag EMC7 WT or EMC7^1–156, washed in 0.01% DDM EMC buffer, Flag peptide elution; silver-stained SDS-PAGE, Western blot, negative-stain EM.

Turning to VDAC1-Lgbit (from UniProt P21796 1-283), the binding result is “no binding” in assay [1] and “binds” in assay [2].

As to VDAC1-VN (from UniProt P21796 1-283), the binding result in assay [3] is listed as “binds”.

For “voltage-dependent anion channel 1 (VDAC1), endogenous (from UniProt P21796 1-283)”, the binding result in assay [4], in assay [5], in assay [6] and in assay [7] was “binds” in each case.
